Data published in PubChem BioAssay AID588855 (National Center for Advancing Translational Sciences (NCATS), 2011).
Screen size: about 410,000 compounds; about 5,000 (1.2%) were called active. The inconclusive results got no clear call from the source; some entries with a clear call stand among them for comparison. Calls come from the whole dose curve; as a rule, active = well fitted inhibition curve with a large enough effect; inconclusive = small, poorly fitted or top-dose-only effect; inactive = no such curve, though single readings can be large or run the other way. Potencies of inconclusive entries are doubtful fits and often do not repeat.

experiment: qHTS for Inhibitors of TGF-b; details: HepG2 CAGA-GFP TGF-b/SMAD3 reporter, GFP fluorescence, 18 h, TGF-beta stimulated, 500 pg/mL final; series mostly up to 46.1 µM; activity, negative = inhibition: at the top concentration; note: nearly all actives have a fitted effect of over 65% in size
Outline: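 First, reporter cells (HEPG2 CAGA-GFP) rested 2 h at 37 degrees C. Next, compounds were pinned in and TGF-beta added to 500 pg/mL final. After 18 h, GFP was imaged per cell and summed per well.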
% is set by controls: 0 for no effect and ±100 for the full control effect; potency is the fitted concentration of half-maximal effect; tags give direction and shape of the fitted curve.

Structure (SMILES) | Potency | activity, negative = inhibition
O=C(Nc1nc(-c2cc(Cl)sc2Cl)cs1)c1cccs1 | inconclusive: 35.5 µM [inhibitor, single point] | 
O=C(NCC1CCCO1)c1sc2cc(Cl)ccc2c1Cl (centres undefined) | inconclusive: 15.8 µM [inhibitor, single point] | 
CCN(CC)S(=O)(=O)c1ccc(C(=O)NCCc2ccccn2)cc1 | inconclusive: 10 µM [inhibitor, partial curve, poor fit] | 
CC(=S)/C=C1\Sc2ccccc2N1C | inconclusive: 15.8 µM [inhibitor, partial curve, poor fit] | 
CC1CN(c2ccc(NC(=S)Nc3ccc(N4CC(C)OC(C)C4)cc3)cc2)CC(C)O1 (centres undefined) |  | inactive: 0.661%
COc1cccc(N2CCN(c3ncnc4c3[nH]c3ccc(F)cc34)CC2C)c1 (centres undefined) | inconclusive: 10 µM [inhibitor, partial curve, poor fit] | 
CC[C@@H]1CC2=C(C(=O)OC(C)(C)O2)[C@H](c2ccc(F)cc2)O1 | inconclusive: 12.6 µM [inhibitor, single point] | 
CC(=O)NCCC(=O)Nc1cc(S(=O)(=O)N2CCOCC2)ccc1Oc1ccc(F)cc1 |  | inactive: 3.71%
COc1cc(/C=C2\CC(C(C)(C)C)C/C(=C\c3cc(OC)c(OC)c(OC)c3)C2=O)cc(OC)c1OC (centres undefined) | active: 11.2 µM | 
COc1ccc(/C=N\NC(=O)COc2ccccc2Cl)cc1Cn1nc(C)cc1C | inconclusive: 22.4 µM [inhibitor, single point] | 
CCC(C)[C@H]1CNC(=S)N1CCc1cc(C(F)(F)F)cc(C(F)(F)F)c1 (some centres undefined) | inconclusive: 25.1 µM [inhibitor, single point] | 
COc1cc(C(C(=O)NC2CCCCC2)N(Cc2ccco2)C(=O)c2cnccn2)cc(OC)c1OC (centres undefined) |  | inactive: -7.05%
Brc1ccc(/C=N/Nc2nc3ccccc3o2)cc1 | inconclusive: 35.5 µM [inhibitor, single point] | 
O=C(OCC(=O)c1ccc(Cl)s1)c1cnccn1 | inconclusive: 2 µM [inhibitor, single point] | 
COc1ccc(OC)c(-c2csc(NC(=O)Cc3ccc(OC)c(OC)c3)n2)c1 | inconclusive: 10 µM [inhibitor, partial curve, poor fit] | 
Cc1ccc(N2C(=S)NC3c4cc(Cl)ccc4OC2(C)C3C(=O)N(C)C)cc1 (centres undefined) |  | inactive: -0.29%
CCc1ccc(-n2c(SCc3cccc(F)c3)nc3[nH]ncc3c2=O)cc1 | inconclusive: 28.2 µM [inhibitor, single point] | 
CN(c1ccc(OCC(=O)NCCc2ccccc2)cc1)S(=O)(=O)c1ccc(Cl)cc1 | inconclusive: 17.8 µM [inhibitor, single point] | 
O=C(Nc1ccc(N2CCN(C(=O)c3ccccc3)CC2)cc1)c1ccc(Br)o1 | inconclusive: 4.47 µM [inhibitor, single point] | 
CCOC(=O)c1ccc(NC(=O)Cn2nnc(-c3ccccc3C)n2)cc1 | inconclusive: 22.4 µM [inhibitor, partial curve, poor fit] | 
S=c1[nH]c2ccccc2c2ccccc12 | inconclusive: 0.112 µM [inhibitor, full curve, poor fit] | 
O=C(CN1CCCCCC1)Nc1ccccc1F |  | inactive: -5.78%
O=c1nc2n(CCO)c3ccccc3cc-2c(=O)[nH]1 |  | inactive: -1.96%

Structure (SMILES) | Potency | activity, negative = inhibition
COc1cccc(NC(=O)c2ccc3nc(Cc4ccccc4)oc3c2)c1 | inconclusive: 35.5 µM [inhibitor, single point] | 
Cc1ccccc1N(CC(=O)NCCSC1CCCCC1)S(=O)(=O)c1ccccc1 | inconclusive: 35.5 µM [inhibitor, partial curve, poor fit] | 
O=C(CSc1ccc2nnc(CCNS(=O)(=O)c3ccccc3)n2n1)Nc1nc2ccccc2s1 | inconclusive: 7.08 µM [inhibitor, partial curve] | 
Cc1ccc(NC(=O)COC(=O)C2(c3ccc(Cl)cc3)CCCC2)cc1 | active: 10 µM | 
Cc1cccc(NC(=S)NNc2cccc(Cl)c2)c1 | inconclusive: 12.6 µM [inhibitor, partial curve] | 
CC(/C=N/NC(=O)c1ccccc1C)=C\c1ccccc1 |  | inactive: 5.82%
CN(CCO)S(=O)(=O)c1ccc2c(c1)C(=NO)c1cc(S(=O)(=O)N(C)CCO)ccc1-2 |  | inactive: -2.3%
C=CCOc1ccc(C2N3CC4(CC)CN2CC(CC)(C3)C4=O)cc1 (centres undefined) |  | inactive: -1.95%
Cc1onc(-c2ccccc2)c1C(=O)Nc1ccncc1 |  | inactive: 0.782%
C=CCN(C)NC(=O)Nc1ccccc1 |  | inactive: -8.44%
O=C(NNC1=Nc2cccc3cccc1c23)c1ccc(Br)cc1 |  | inactive: 6.33%
NCc1csc(NC(=O)Nc2cccc(C(F)(F)F)c2)n1 | inconclusive: 35.5 µM [inhibitor, single point] | 
O=C(Nc1cc(S(=O)(=O)N2CCOCC2)ccc1-n1cncn1)c1ccc(Cl)cc1 |  | inactive: -5.43%
COC(=O)[C@@H](NC(=O)NCc1cccc(OC)c1)C(C)C | inconclusive: 12.6 µM [inhibitor, single point] | 
COc1ccc(Cc2nnc(SC(C)C(=O)Nc3ccc(C(N)=O)cc3)o2)cc1 (centres undefined) | inconclusive: 35.5 µM [inhibitor, partial curve, poor fit] | 
CCCCC(CC)CN=C(N)NC(N)=NCCCCCCN=C(N)NC(N)=NCC(CC)CCCC (centres undefined) | inconclusive: 11.2 µM [inhibitor, partial curve, poor fit] | 
CC(C)C[C@H](NC(=O)c1nc[nH]c1C(=O)NC1CCNCC1)C(=O)OC(C)(C)C | inconclusive: 35.5 µM [inhibitor, partial curve, poor fit] | 
FC(F)(F)c1ccc(-c2noc(CN3CCCN(C4CCCCC4)CC3)n2)cc1 | inconclusive: 14.1 µM [inhibitor, single point] | 
CCOc1ccccc1NS(=O)(=O)c1ccc2c(c1)NC(=O)CCS2 | inconclusive: 35.5 µM [inhibitor, single point] | 
COc1ccc(/C=C/C(=O)NCC(=O)N/N=C/c2cc(Br)ccc2OCc2ccccc2)cc1 |  | inactive: -5.6%
COc1ccccc1N1CCN(C(=O)C2CCCN(S(=O)(=O)c3ccc(C)cc3)C2)CC1 (centres undefined) | inconclusive: 17.8 µM [inhibitor, partial curve, poor fit] | 
Cc1ccnc2ccc([N+](=O)[O-])cc12 | inconclusive: 35.5 µM [inhibitor, single point] | 
S=C(NCc1ccco1)N1CCN(C/C=C/c2ccccc2)CC1 |  | inactive: -29.8%

Structure (SMILES) | Potency | activity, negative = inhibition
Cc1cccc(-c2nc(C(N)=O)c3c(n2)n(-c2ccc4c(c2)OCO4)c(=O)n3C)c1 | inconclusive: 3.98 µM [inhibitor, partial curve, poor fit] | 
Cc1ccc2c(c1)C(=O)C(=O)N2Cc1ccc(C(F)(F)F)cc1 | active: 15.8 µM | 
COc1ccccc1/C=C\C(=O)NCC(=O)N/N=C/c1ccc(O)cc1O | inconclusive: 7.08 µM [inhibitor, partial curve, poor fit] | 
Clc1ccc(N2CCN(Cc3ccc(Br)o3)CC2)cc1 |  | inactive: -5.9%
Nc1cc(-c2ccccc2)nn1S(=O)(=O)c1ccc(Br)cc1 | inconclusive: 3.16 µM [inhibitor, full curve] | 
CCCc1cc(C(=O)Nc2c(C)nn(Cc3ccc(Cl)c(Cl)c3)c2C)no1 | inconclusive: 10 µM [inhibitor, partial curve] | 
CCOc1ccc2oc(-c3ccccc3)c(C(=O)N(C)C)c2c1 |  | inactive: -15.3%
Cc1ccc(-n2nc3c(c2NC(=O)c2ccco2)CS(=O)C3)c(C)c1 (centres undefined) | inconclusive: 5.62 µM [inhibitor, single point] | 
COc1ccc(/C=C/C2=CC(C)(C)NC(=S)N2)cc1 |  | inactive: 12.9%
CCN(CC)C(=O)COc1c(-c2ccco2)oc2ccccc2c1=O |  | inactive: -0.918%
Cc1ccc(NC(=S)N/N=C2\CCCCC2C)cc1 (centres undefined) | inconclusive: 35.5 µM [inhibitor, partial curve, poor fit] | 
CC1(C)NC(=O)N(CC(=O)Nc2nc(-c3ccc(F)cc3)cs2)C1=O | inconclusive: 5.62 µM [inhibitor, single point] | 
O=C(Nc1ccccc1C(=O)NCCc1ccccc1)c1cnccn1 |  | inactive: 0.356%
COc1cc(C(=O)NCc2nnc(SCC(=O)Nc3cccc(C(F)(F)F)c3)o2)cc(OC)c1OC |  | inactive: 2.19%
COc1cc(-c2cc(OC)c3c(C)oc(C)c3c(=O)c2)ccc1OC(=O)c1ccccc1F | inconclusive: 35.5 µM [inhibitor, single point] | 
O=S(=O)(Nc1ncnc2sc3c(c12)CCC3)c1ccc2ccccc2c1 | inconclusive: 3.55 µM [inhibitor, partial curve] | 
CCOC(=O)C1(CCCc2ccccc2)CCN(CCCn2cccn2)CC1 | inconclusive: 3.98 µM [inhibitor, full curve, poor fit] | 
Cc1ccc2nc(C3CCCCC3)c(Cc3ccccc3C(F)(F)F)n2c1 | inconclusive: 28.2 µM [inhibitor, single point] | 
Cc1cccc(OCCN2C(=O)C(=O)c3cc(C)ccc32)c1 | inconclusive: 35.5 µM [inhibitor, single point] | 
COc1ccc(-c2cc(-c3ccc(Cl)cc3)c(C#N)c(SCC(=O)O)n2)cc1 | inconclusive: 35.5 µM [inhibitor, single point] | 
COc1ccc(N2CCN(C(=O)c3ccc4c(Cl)c5c(nc4c3)CCCC5)CC2)cc1 | inconclusive: 11.2 µM [inhibitor, partial curve, poor fit] | 
CC(C)Oc1ccc(CN2CCC2(C)C(=O)NCc2cccc3ccccc23)cc1 (centres undefined) | inconclusive: 35.5 µM [inhibitor, single point] | 
COc1ccc(S(=O)(=O)N2CCCC2C(=O)Nc2nnc(-c3cccnc3)s2)cc1 (centres undefined) |  | inactive: -23%
